In all, about 220,000 compounds went through this assay and about 16,000 (7.3%) were called active. The shares of active, inactive and inconclusive entries below differ from those in the screen. Calls follow the shape of the dose curve; as a rule, active = well fitted inhibition curve with a large enough effect (not every such curve was filed as active); inconclusive = small, poorly fitted or top-dose-only effect, or another doubt; inactive = no such curve, though single readings can be large or run the other way. Potencies beside an inconclusive call are fits to weak or partial responses and may not hold up.
Biological target: Aldehyde dehydrogenase 1A1 (Homo sapiens) (UniProt P00352)
Chain of UniProt P00352 (P00352 whole entry, looked up): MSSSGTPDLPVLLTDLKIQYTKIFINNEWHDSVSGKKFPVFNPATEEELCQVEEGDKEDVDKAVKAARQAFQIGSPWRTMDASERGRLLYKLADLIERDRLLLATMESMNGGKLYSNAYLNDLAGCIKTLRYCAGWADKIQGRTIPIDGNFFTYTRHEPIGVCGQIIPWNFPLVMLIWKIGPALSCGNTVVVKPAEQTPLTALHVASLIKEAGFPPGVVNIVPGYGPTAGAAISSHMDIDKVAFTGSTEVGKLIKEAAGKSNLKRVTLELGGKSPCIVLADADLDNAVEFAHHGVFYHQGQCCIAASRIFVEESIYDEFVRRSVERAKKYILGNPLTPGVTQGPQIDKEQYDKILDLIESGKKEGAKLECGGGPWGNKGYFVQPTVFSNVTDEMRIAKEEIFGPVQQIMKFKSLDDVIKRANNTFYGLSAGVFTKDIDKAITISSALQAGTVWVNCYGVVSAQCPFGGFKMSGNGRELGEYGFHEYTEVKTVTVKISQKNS
Assay: qHTS Assay for Inhibitors of Aldehyde Dehydrogenase 1 (ALDH1A1);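 as to activity, negative = inhibition: plate controls were no enzyme wells and a reference inhibitor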
Conditions: Purified ALDH1A1, NADH fluorescence, propionaldehyde substrate; series mostly up to 75.3 µM; activity, negative = inhibition: at the top concentration
Potency is read from the fitted curve at half-maximal effect; tags tell the direction and shape of the fitted curve.

Potency, inconclusive:
O=C(Nc1ccn(Cc2ccccc2F)n1)c1ccc(COc2ccccc2Cl)cc1 35.5 µM [inhibitor, single point]
CC1CCCC(C)N1C(=O)Cn1c(SCC(=O)NCc2ccc3c(c2)OCO3)nc2ccccc21 (stereo unspecified) 39.8 µM [inhibitor, single point]
O=C(Cn1cc2c(n1)CCCCC2)N1CCc2ccccc2C1 39.8 µM [inhibitor, single point]
O=C(Cn1c(-c2cscn2)nc2ccccc21)Nc1ccc(Cl)cc1 39.8 µM [inhibitor, single point]
COc1ccccc1Oc1c(C)oc2c(CN3CCN(C)CC3)c(O)ccc2c1=O 25.1 µM [inhibitor, partial curve]
O=C(N/N=C/c1c(F)c(F)c(F)c(F)c1F)c1cccc(S(=O)(=O)N2CCOCC2)c1 3.16 µM [inhibitor, single point]
O=C(Nc1ccc(Br)cn1)c1cccc(-c2cc3ccccc3oc2=O)c1 28.2 µM [inhibitor, single point]
CCCCOc1cccc(-c2cc(C(=O)NNC(=S)NCC)c3ccccc3n2)c1 35.5 µM [inhibitor, single point]
COc1ccc(-c2nc(-c3cccc(C)c3)nc(Cl)c2C#N)cc1 28.2 µM [inhibitor, single point]
Cc1ccc(-c2noc(C3CCCN(C(=O)C4CCCCC4)C3)n2)o1 (stereo unspecified) 35.5 µM [inhibitor, single point]
Cc1ccccc1-c1ccc2ncnc(N3CCNCC3)c2c1 39.8 µM [inhibitor, single point]
O=C(Nc1cc2c(cc1Br)OCCCO2)c1ccccc1 37.7 µM [inhibitor, single point]
COc1ccc(N(CC(=O)NCc2ccco2)S(C)(=O)=O)cc1Cl 39.8 µM [inhibitor, single point]
O=C(NCCC1=CCCCC1)c1ccc(Cl)c([N+](=O)[O-])c1 39.8 µM [inhibitor, single point]
O=C(O)CC/C(=C\c1ccc(Cl)c([N+](=O)[O-])c1)c1nc2ccccc2s1 35.5 µM [inhibitor, single point]
COc1ccc2c3c(ccc2c1)N[C@H](C(=O)O)CC3 8.91 µM [inhibitor, single point]
Cc1cc(-c2ccccc2)n(-c2ccc(C(N)=O)cc2)n1 7.08 µM [inhibitor, single point]
COc1cccc(CSc2ccc(S(=O)(=O)N3CCOCC3)cc2C(=O)NCC2CCCO2)c1OC (stereo unspecified) 44.7 µM [inhibitor, single point]
COC(=O)c1cc(OC)c(OC)cc1NC(=O)c1cccc(C)c1 28.2 µM [inhibitor, partial curve]
CCC1CCCCN1S(=O)(=O)c1ccc(NC(=O)CSc2ncccc2C(=O)O)cc1 (stereo unspecified) 25.1 µM [inhibitor, partial curve]
COc1ccc2c(c1OC)C(=O)N1N=C(c3ccc(F)cc3)CC21 (stereo unspecified) 37.7 µM [inhibitor, single point]
N[C@H](C(=O)O)c1ccc(C(=O)O)c(O)c1 28.2 µM [inhibitor, partial curve]
O=C(COC(=O)Cc1ccsc1)NCC1CCCCC1 39.8 µM [inhibitor, single point]
O=C(NCc1ccc(Cl)cc1)C(=O)NCC1OCCN1S(=O)(=O)c1cccs1 (stereo unspecified) 39.8 µM [inhibitor, single point]
N#Cc1c(NC(=O)c2ccc(N3CCOCC3)c([N+](=O)[O-])c2)sc2c1CCCC2 0.562 µM [inhibitor, full curve]
Cc1ccc(CNC(=O)CCc2ccc(S(=O)(=O)NC3CCCCC3)cc2)cc1 3.55 µM [inhibitor, single point]
CNc1cncc(C(=O)O)c1 39.8 µM [inhibitor, single point]
CC1Cc2nc(SCC(=O)Nc3ccc4c(c3)OCCO4)n(C)c(=O)c2S1 (stereo unspecified) 8.91 µM [inhibitor, single point]

Potency, active:
Cc1ccc(S(=O)(=O)/N=C(\CCl)N2CCOCC2)cc1 28.2 µM
CN(C)C(CNC(=O)c1ccc2c(=O)n(-c3ccccc3F)c(=S)[nH]c2c1)Cc1ccccc1 (stereo unspecified) 12.6 µM
COC(=O)c1ccccc1NC(=O)C1CC(=O)N(c2ccc(C)c(C)c2)C1 (stereo unspecified) 17.8 µM
CC1CCN(C(=O)CSc2nnc(CN3CCOCC3)n2-c2ccccc2)CC1 1.26 µM

Potency, inactive:
O=C(NCCNC[C@@H](O)COc1ccc(O)cc1)N1CCOCC1
O=C(O)c1cc(=O)c2ccccc2[nH]1

activity, negative = inhibition, inactive:
COc1ccc(NC(C)=O)cc1NC(=O)CSc1nnc(-c2ccc(F)cc2)n1N 10.5%
CC1=CC(=C(C#N)c2nc3ccccc3s2)C=C(C)N1c1ccc(F)cc1 -6.97%
CCn1c(SCc2nc3scc(-c4ccccc4)c3c(=O)[nH]2)nnc1-c1ccc(Cl)cc1 9.16%
Cc1ccc(S(=O)(=O)Oc2ccc(/C=N/N=C3/NC(=O)C(CC(=O)O)S3)cc2)cc1 (stereo unspecified) -13.3%
CCc1ccccc1NC(=O)CCCSc1nc2ccccc2s1 7.61%
CC(Oc1ccc(Cl)cc1Cl)C(=O)NC1CCSC1=O (stereo unspecified) 12.2%
O=C(NC1CCCCC1)C(=S)NCc1ccccc1 -13.7%
Cc1cccc(NC(=O)CC2C(=O)NCCN2C(=S)Nc2ccccc2)c1 (stereo unspecified) -6.71%
O=C(Nc1nnc(C2=COCCO2)o1)c1ccc(Cc2ccccc2)cc1 -13.9%
CCOc1cc(OCC)cc(C(=O)Nc2cccnc2)c1 -3.15%
COC(=O)/C=C1\SC(=Nc2ccc(Cl)c(Cl)c2)NC1=O -4.98%
O=C(c1cccc(C(F)(F)F)c1)c1c[nH]c(C(=O)NCCCN2CCOCC2)c1 3.9%

Source: PubChem BioAssay AID1030 (National Center for Advancing Translational Sciences (NCATS), 2008)
